Laboratory results as given in the supplement of paper PMC12217912.
The list shows a part of the results. The full chains were built here from the parent and the listed change. Values near 0.05 are background.

B1: TEV protease; numbered along this chain (parent)
chain: MGESLFKGPRDYNPISSSICHLTNESDGHTTSLYGIGFGPFIITNKHLFRRNNGTLVVQSLHGVFKVKDTTTLQQHLVDGRDMIIIRMPKDFPPFPQKLKFREPQREERICLVTTNFQTKSMSSMVSDTSCTFPSGDGIFWKHWIQTKDGQCGSPLVSTRDGFIVGIHSASNFTNTNNYFTSVPKNFMELLTNQEAQQWVSGWRLNADSVLWGGHKVFMVKPEEPFQPVKEATQL

Variants of: B1
Assay: raw area under fraction-flipped curve 0-4 h after induction (AUC4h, not background-subtracted), DNA-recorder readout of cleavage of the substrate (dimensionless); higher = more cleavage of the substrate by the protease variant
Details: temperature: 34 °C; time window: 0-4 h after rhamnose induction
Method: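 In vivo DNA recorder in E. coli TOP10(DE3) ΔrhaA at 34 °C. Each TEVp single-site mutant (parent TEVp 0) is paired with a single-site variant of the 7-mer TEVs (canonical ENLYFQ|S). The substrate sits between flexible linkers in a Bxb1-sfGFP-TEVs-SsrA fusion, so cleavage stabilises Bxb1 and speeds flipping of a recombination array, read by NGS. The value is the raw area under the fraction-flipped curve over 0-4 h after rhamnose induction (AUC4h), with ≥20 reads per time point. It is not background-subtracted; inactive controls average about 0.047.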
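Further: Bxb1 expression induced with 0.2% (w/v) L-rhamnose at OD600 near 0.5, cultures sampled hourly, flipped fraction per protease–substrate barcode pair counted by paired-end Illumina sequencing.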

| Variant | area with substrate EALYFQS | area with substrate ECLYFQS | area with substrate EELYFQS | area with substrate EFLYFQS | area with substrate EHLYFQS | area with substrate EILYFQS | area with substrate EKLYFQS | area with substrate ELLYFQS | area with substrate EMLYFQS | area with substrate EQLYFQS | area with substrate ERLYFQS | area with substrate ESLYFQS | area with substrate ETLYFQS | area with substrate EVLYFQS | area with substrate EWLYFQS | area with substrate EYLYFQS | area with substrate EDLYFQS | area with substrate EGLYFQS | area with substrate EPLYFQS |
| --- | --- | --- | --- | --- | --- | --- | --- | --- | --- | --- | --- | --- | --- | --- | --- | --- | --- | --- | --- |
| Q234K | 0.119 | 0.112 | 0.122 | 0.0656 | 0.0713 | 0.101 | 0.132 | 0.0884 | 0.119 | 0.114 | 0.0992 | 0.118 | 0.127 | 0.127 | 0.0949 | – | – | – | – |
| Q234I | 0.114 | 0.0912 | 0.0953 | 0.0993 | – | 0.0791 | 0.0866 | 0.11 | 0.0998 | 0.118 | 0.0941 | 0.116 | – | – | 0.0977 | 0.0981 | – | – | – |
| F6H | – | 0.101 | 0.107 | – | – | 0.104 | 0.0974 | 0.0972 | – | 0.106 | – | 0.11 | 0.121 | – | – | – | 0.132 | 0.12 | – |
| K221I | 0.0988 | 0.0912 | 0.107 | – | 0.0884 | 0.0925 | 0.0882 | 0.103 | – | 0.088 | 0.0911 | 0.0871 | 0.0811 | 0.089 | 0.0785 | 0.13 | 0.0876 | 0.0745 | – |
| L77N | – | 0.0735 | 0.0639 | 0.0674 | – | 0.0632 | – | – | – | 0.0665 | 0.0692 | – | – | 0.092 | – | 0.106 | 0.0647 | 0.0601 | 0.0618 |
| D11S | – | 0.114 | 0.151 | 0.122 | 0.119 | 0.097 | 0.138 | 0.0942 | 0.113 | 0.138 | 0.0951 | 0.107 | 0.135 | 0.17 | 0.104 | 0.126 | 0.146 | – | 0.0827 |
| G39W | – | 0.0558 | 0.0483 | – | 0.0344 | 0.0363 | 0.0195 | 0.0386 | – | 0.0518 | 0.0482 | 0.0402 | 0.0506 | 0.0472 | 0.0395 | – | 0.0469 | 0.0505 | – |
| H29D | – | 0.104 | 0.134 | – | 0.118 | 0.111 | 0.137 | – | 0.118 | 0.136 | 0.0899 | 0.0977 | – | 0.116 | 0.0952 | – | – | 0.095 | 0.141 |
| T30W | – | 0.131 | 0.133 | – | 0.102 | 0.0918 | 0.125 | 0.0972 | 0.116 | 0.109 | 0.125 | 0.123 | 0.169 | 0.101 | 0.096 | 0.103 | – | 0.0921 | – |
| E223T | 0.0558 | 0.112 | 0.112 | – | – | 0.0713 | 0.0765 | 0.0853 | 0.096 | 0.103 | 0.0826 | 0.0982 | – | – | – | 0.0854 | 0.124 | 0.149 | 0.0972 |
| V57L | – | 0.146 | – | – | – | 0.102 | 0.125 | 0.0757 | 0.0992 | – | 0.111 | 0.121 | – | 0.109 | 0.108 | – | 0.14 | – | 0.111 |
| V57W | – | 0.104 | 0.115 | 0.108 | – | 0.109 | 0.12 | 0.106 | – | 0.128 | 0.0861 | 0.0979 | 0.107 | 0.0975 | 0.0849 | 0.0326 | – | 0.0875 | – |
| T233H | 0.122 | 0.0449 | – | 0.0996 | 0.0815 | 0.0978 | 0.101 | – | – | 0.119 | – | – | – | 0.1 | – | – | 0.0718 | 0.151 | – |
